{
  "source": "PubChem BioAssay AID1224863",
  "about": "(Southern Research Institute, 2016)",
  "key": {"[1]": {"experiment": "total CFTR protein upregulators, primary screen, cell-based, HeLa F508del-CFTR, immunofluorescence, viability (AID 1224863);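 on fold increase: total CFTR protein by anti-CFTR immunofluorescence in fixed cells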", "settings": "24 h, stronger effect = higher value; min viability: measured here: HeLa viability, alamarBlue, dose 50, library dosed in µM unless noted; viability: measured here: primary viability 25 uM, at 25 µM, library dosed in µM unless noted"}, "[2]": {"molecular_target": "Cystic fibrosis transmembrane conductance regulator (Homo sapiens) (UniProt P13569)", "sequence (P13569 whole entry, looked up)": "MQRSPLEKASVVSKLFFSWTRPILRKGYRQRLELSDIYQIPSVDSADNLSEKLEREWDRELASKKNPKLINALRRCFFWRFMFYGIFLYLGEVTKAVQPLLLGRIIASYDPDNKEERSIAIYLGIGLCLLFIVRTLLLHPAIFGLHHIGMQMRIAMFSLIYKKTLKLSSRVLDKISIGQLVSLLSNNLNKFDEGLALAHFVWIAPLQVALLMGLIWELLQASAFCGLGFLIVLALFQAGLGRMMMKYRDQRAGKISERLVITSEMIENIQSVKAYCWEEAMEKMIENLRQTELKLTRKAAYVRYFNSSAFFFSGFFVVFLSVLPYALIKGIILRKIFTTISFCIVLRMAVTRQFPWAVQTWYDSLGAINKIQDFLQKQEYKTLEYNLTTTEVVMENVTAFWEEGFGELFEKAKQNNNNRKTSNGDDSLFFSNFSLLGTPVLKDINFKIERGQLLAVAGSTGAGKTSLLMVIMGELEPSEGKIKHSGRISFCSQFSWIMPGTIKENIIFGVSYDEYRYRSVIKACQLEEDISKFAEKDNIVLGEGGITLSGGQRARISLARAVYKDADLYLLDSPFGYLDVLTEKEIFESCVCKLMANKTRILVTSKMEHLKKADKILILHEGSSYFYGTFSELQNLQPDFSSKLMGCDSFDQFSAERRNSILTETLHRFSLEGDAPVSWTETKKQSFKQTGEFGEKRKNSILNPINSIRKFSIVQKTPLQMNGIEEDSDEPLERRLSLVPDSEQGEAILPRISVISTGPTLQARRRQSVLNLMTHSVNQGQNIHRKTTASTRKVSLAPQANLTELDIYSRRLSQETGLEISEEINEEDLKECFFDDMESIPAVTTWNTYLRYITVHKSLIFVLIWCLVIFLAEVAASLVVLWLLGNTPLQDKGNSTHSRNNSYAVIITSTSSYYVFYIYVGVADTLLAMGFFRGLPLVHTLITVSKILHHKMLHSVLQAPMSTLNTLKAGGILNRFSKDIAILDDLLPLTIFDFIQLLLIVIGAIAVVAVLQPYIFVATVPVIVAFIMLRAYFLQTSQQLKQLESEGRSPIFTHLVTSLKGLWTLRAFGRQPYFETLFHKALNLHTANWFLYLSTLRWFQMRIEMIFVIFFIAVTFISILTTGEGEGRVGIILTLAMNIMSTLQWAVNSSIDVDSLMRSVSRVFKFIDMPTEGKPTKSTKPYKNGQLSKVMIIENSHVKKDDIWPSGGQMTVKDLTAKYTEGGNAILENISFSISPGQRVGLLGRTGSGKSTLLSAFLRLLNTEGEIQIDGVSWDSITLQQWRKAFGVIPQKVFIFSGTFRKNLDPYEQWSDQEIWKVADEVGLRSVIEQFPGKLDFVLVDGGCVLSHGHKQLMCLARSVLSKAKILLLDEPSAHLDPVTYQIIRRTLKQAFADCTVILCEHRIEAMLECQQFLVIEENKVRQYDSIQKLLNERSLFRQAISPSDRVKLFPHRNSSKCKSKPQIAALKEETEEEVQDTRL", "experiment": "total CFTR protein upregulators, primary screen, cell-based, HeLa F508del-CFTR, immunofluorescence, viability (AID 1224863)", "settings": "24 h, stronger effect = higher value; measured here: primary screen single dose 25 uM, at 25 µM, library dosed in µM unless noted"}},
  "note": "Where “and” joins values, the source holds several entries; their conditions need not be identical. Equal values may be shown once. The list shows a part of the results. The main result of the screen is listed elsewhere. These columns were measured beside it and carry no call.",
  "data": [
    {"smiles": "Cc1ccc(/C=C/C(=O)NC2CC2)o1", "values": [
      {"measurement": "min viability", "setting": "[1]", "result": "86.1% [measured here: HeLa viability, alamarBlue, dose 5, library dosed in µg/mL]"},
      {"measurement": "viability", "setting": "[1]", "result": "85% [measured here: primary viability 10 ug/mL, library dosed in µg/mL]"},
      {"measurement": "fold increase", "setting": "[2]", "result": "2.57 [measured here: primary screen 10 ug/mL, library dosed in µg/mL]"}
    ]},
    {"smiles": "CSc1ncc(Cl)c(C(=O)NCCNc2ncc(Cl)cc2Cl)n1", "values": [
      {"measurement": "min viability", "setting": "[1]", "result": "93.8% [measured here: HeLa viability, alamarBlue, dose 5, library dosed in µg/mL]"},
      {"measurement": "viability", "setting": "[1]", "result": "60% [measured here: primary viability 10 ug/mL, library dosed in µg/mL]"},
      {"measurement": "fold increase", "setting": "[2]", "result": "1.06 [measured here: primary screen 10 ug/mL, library dosed in µg/mL]"}
    ]},
    {"smiles": "Cc1cc(C)c(S(=O)(=O)N2CCc3sccc3C2)c(C)c1", "values": [
      {"measurement": "min viability", "setting": "[1]", "result": "63.5% [measured here: HeLa viability, alamarBlue, dose 2.5, library dosed in µg/mL]"},
      {"measurement": "viability", "setting": "[1]", "result": "52% [measured here: primary viability 10 ug/mL, library dosed in µg/mL]"},
      {"measurement": "fold increase", "setting": "[2]", "result": "0.95 [measured here: primary screen 10 ug/mL, library dosed in µg/mL]"}
    ]},
    {"smiles": "C[n+]1c2cc(N)ccc2cc2ccc(N)cc21", "values": [
      {"measurement": "min viability", "setting": "[1]", "result": 65.5, "unit": "%"},
      {"measurement": "viability", "setting": "[1]", "result": 74, "unit": "%"},
      {"measurement": "fold increase", "setting": "[2]", "result": 10}
    ]},
    {"smiles": "COc1ccc(-c2noc(CSc3nnc(N)s3)n2)c(OC)c1", "values": [
      {"measurement": "min viability", "setting": "[1]", "result": "51.3% [measured here: HeLa viability, alamarBlue, dose 20, library dosed in µg/mL]"},
      {"measurement": "viability", "setting": "[1]", "result": "59% [measured here: primary viability 10 ug/mL, library dosed in µg/mL]"},
      {"measurement": "fold increase", "setting": "[2]", "result": "1.03 [measured here: primary screen 10 ug/mL, library dosed in µg/mL]"}
    ]},
    {"smiles": "O=C(c1ccccc1)C1C(=O)c2ccccc2C1=O", "values": [
      {"measurement": "min viability", "setting": "[1]", "result": "71.7% [measured here: HeLa viability, alamarBlue, dose 0.63, library dosed in µg/mL]"},
      {"measurement": "viability", "setting": "[1]", "result": "101% [measured here: primary viability 10 ug/mL, library dosed in µg/mL]"},
      {"measurement": "fold increase", "setting": "[2]", "result": "1.5 [measured here: primary screen 10 ug/mL, library dosed in µg/mL]"}
    ]},
    {"smiles": "Cc1ccc(C)c(S(=O)(=O)C2(C(=O)OCc3cn4ccccc4c3C#N)CCCC2)c1", "values": [
      {"measurement": "min viability", "setting": "[1]", "result": "58.7% [measured here: HeLa viability, alamarBlue, dose 20, library dosed in µg/mL]"},
      {"measurement": "viability", "setting": "[1]", "result": "72% [measured here: primary viability 10 ug/mL, library dosed in µg/mL]"},
      {"measurement": "fold increase", "setting": "[2]", "result": "2.23 [measured here: primary screen 10 ug/mL, library dosed in µg/mL]"}
    ]},
    {"smiles": "CCC(C)[C@H]1O[C@]2(C=C[C@@H]1C)C[C@@H]1C[C@@H](C/C=C(\\C)[C@@H](OC3C[C@H](OC)C(O[C@H]4C[C@H](OC)[C@@H](NC(C)=O)[C@H](C)O4)[C@H](C)O3)[C@@H](C)/C=C/C=C3\\CO[C@@H]4[C@H](O)C(C)=C[C@@H](C(=O)O1)[C@]34O)O2", "note": "(stereo partly specified)", "values": [
      {"measurement": "min viability", "setting": "[1]", "result": 62.8, "unit": "%"},
      {"measurement": "viability", "setting": "[1]", "result": 60, "unit": "%"},
      {"measurement": "fold increase", "setting": "[2]", "result": 1.62}
    ]},
    {"smiles": "CCN(CC)CCNC(=O)c1c(C)[nH]c(/C=C2\\C(=O)Nc3ccc(F)cc32)c1C", "values": [
      {"measurement": "viability", "setting": "[1]", "result": 67, "unit": "%"},
      {"measurement": "fold increase", "setting": "[2]", "result": 1.27}
    ]},
    {"smiles": "O=c1[nH]c(=O)n([C@H]2C[C@H](O)C(CO)O2)cc1I", "note": "(stereo partly specified)", "values": [
      {"measurement": "viability", "setting": "[1]", "result": 77, "unit": "%"},
      {"measurement": "fold increase", "setting": "[2]", "result": 1.43}
    ]},
    {"smiles": "Cc1c(/C=C(/C#N)c2ccc([N+](=O)[O-])cc2)cc(C#N)n1C", "values": [
      {"measurement": "min viability", "setting": "[1]", "result": "69.7% [measured here: HeLa viability, alamarBlue, dose 10, library dosed in µg/mL]"},
      {"measurement": "viability", "setting": "[1]", "result": "83% [measured here: primary viability 10 ug/mL, library dosed in µg/mL]"},
      {"measurement": "fold increase", "setting": "[2]", "result": "2.15 [measured here: primary screen 10 ug/mL, library dosed in µg/mL]"}
    ]},
    {"smiles": "Cc1ccc(/C=C/C2=Cc3c(sc(NC(=O)CN4CCOCC4)c3C#N)C(C)(C)C2)o1", "values": [
      {"measurement": "min viability", "setting": "[1]", "result": "70.1% [measured here: HeLa viability, alamarBlue, dose 20, library dosed in µg/mL]"},
      {"measurement": "viability", "setting": "[1]", "result": "66% [measured here: primary viability 10 ug/mL, library dosed in µg/mL]"},
      {"measurement": "fold increase", "setting": "[2]", "result": "1.42 [measured here: primary screen 10 ug/mL, library dosed in µg/mL]"}
    ]},
    {"smiles": "CC1(c2cc(F)ccc2F)NC(=O)N(CC(=O)c2ccc3c(c2)OCCO3)C1=O", "note": "(stereo unspecified)", "values": [
      {"measurement": "min viability", "setting": "[1]", "result": "95.2% [measured here: HeLa viability, alamarBlue, dose 0.31, library dosed in µg/mL]"},
      {"measurement": "viability", "setting": "[1]", "result": "69% [measured here: primary viability 10 ug/mL, library dosed in µg/mL]"},
      {"measurement": "fold increase", "setting": "[2]", "result": "1.27 [measured here: primary screen 10 ug/mL, library dosed in µg/mL]"}
    ]},
    {"smiles": "C=C[C@H]1CN2CC[C@H]1C[C@H]2[C@H](O)c1ccnc2ccc(OC)cc12", "values": [
      {"measurement": "min viability", "setting": "[1]", "result": "37.1% [measured here: HeLa viability, alamarBlue, dose 6.25, library dosed in µM]"},
      {"measurement": "viability", "setting": "[1]", "result": "102% and 84%"},
      {"measurement": "fold increase", "setting": "[2]", "result": "1.23 and 1.94"}
    ]},
    {"smiles": "COc1cc2c(cc1/C=C(/C#N)c1nc(C)cs1)OC(C)C2", "note": "(stereo unspecified)", "values": [
      {"measurement": "min viability", "setting": "[1]", "result": "80.9% [measured here: HeLa viability, alamarBlue, dose 0.31, library dosed in µg/mL]"},
      {"measurement": "viability", "setting": "[1]", "result": "87% [measured here: primary viability 10 ug/mL, library dosed in µg/mL]"},
      {"measurement": "fold increase", "setting": "[2]", "result": "2.44 [measured here: primary screen 10 ug/mL, library dosed in µg/mL]"}
    ]},
    {"smiles": "CC[C@H](C)C(=O)O[C@H]1C[C@@H](C)C=C2C=C[C@H](C)[C@H](CC[C@@H]3C[C@@H](O)CC(=O)O3)[C@H]21", "values": [
      {"measurement": "min viability", "setting": "[1]", "result": "84.1% [measured here: HeLa viability, alamarBlue, dose 12.5, library dosed in µM]"},
      {"measurement": "viability", "setting": "[1]", "result": "82% and 101%"},
      {"measurement": "fold increase", "setting": "[2]", "result": "1.51 and 1.37"}
    ]}
  ]
}
